Laboratory results taken from PubChem BioAssay AID1508642 (National Center for Advancing Translational Sciences (NCATS), 2021).
Screen size: about 43,000 compounds; about 200 (0.47%) were called active. About 12% were inconclusive and are not listed. Calls follow the shape of the dose curve; as a rule, active = well fitted cell-killing curve with a large enough effect; inconclusive = small, poorly fitted or top-dose-only effect, or effect the other way; inactive = flat fitted curve, though single readings scatter. The list shows a part of the results.

assay: Cell viability qHTS assay in S16 Pmp22-F2sN cells; settings: S16 Pmp22-F2sN Schwann cells (luciferase reporters placed in the Pmp22 gene) viability, CellTiter-Glo, 24 h; series mostly up to 57.5 µM; activity change, negative = cytotoxicity: at the top concentration; also: nearly all actives have a fitted effect of over 65% in size
Method in brief: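 Luminescence from CellTiter-Glo, read by CCD camera after a 15 min room-temperature incubation, served as the viability signal. Reporter Schwann cells (S16 Pmp22-F2sN) had been treated with pin-transferred compounds for 24 h at 37C.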
% is scaled to controls: 0 for no effect and ±100 for the full control effect.

Row | SMILES | activity change, negative = cytotoxicity
1 | COc1ccc(Cl)cc1NC(=O)Cc1coc2c(C)c(C)ccc12 | inactive: -13.1%
2 | COc1ccccc1-c1nc2c(c(SCC(=O)Nc3ccccc3F)n1)Cc1c(CO)cnc(C)c1O2 | inactive: -3.25%
3 | COc1ccccc1N1CCN(CCCNC(=O)c2nnc(Cc3c(F)cccc3Cl)o2)CC1 | inactive: -2.74%
4 | CC(O)CNC(=O)C(=O)Nc1c2c(nn1-c1ccc(Cl)cc1)CSC2 (stereo unspecified) | inactive: -2.06%
5 | COc1ccc(NC(=O)C2CCCN(C(=O)c3cnn(-c4ccccc4)c3-n3cccc3)C2)cc1 (stereo unspecified) | inactive: -22.4%
6 | CCOc1ccc(CCNC(=O)CS(=O)(=O)Cc2nc(-c3cccc(Cl)c3)oc2C)cc1 | inactive: -0.47%
7 | COc1ccccc1C(=O)Nc1c(C(=O)N2CCN(c3ccc(F)cc3)CC2)oc2ccccc12 | inactive: -2.07%
8 | Cc1ccc2c(=O)cc(C(=O)N(Cc3ccccc3Cl)C3CCS(=O)(=O)C3)oc2c1 (stereo unspecified) | inactive: -4.55%
9 | COc1ccc(-c2cc(-c3ccccc3)c(C#N)c(SCC(O)CS(=O)(=O)Cc3ccccc3)n2)cc1 (stereo unspecified) | inactive: 2.4%
10 | Cc1cc(C)c2oc(C(=O)Nc3c(C)n(C)n(-c4ccccc4)c3=O)cc(=O)c2c1 | inactive: 2.09%
11 | CC(=O)N1CCc2c(sc3c2c(=O)n(-c2ccccc2C)c(=O)n3CC(=O)c2ccccc2)C1 | inactive: 2.91%
12 | Cc1ccc(C(=O)NCC(=O)OCc2cc(=O)n3c(C)csc3n2)cc1 | inactive: 20.7%
13 | Cc1ccc(-n2nc3cc(C)c(NC(=O)COc4ccccc4)cc3n2)cc1 | inactive: 9.35%
14 | CCOC(=O)CCN(c1ccccc1)S(=O)(=O)c1cc(-c2cc(C)no2)ccc1C | inactive: -13.1%
15 | CCc1cc2c(cc3c(=O)n(CC(=O)NC4CCCCC4)nc(CC)n32)s1 | inactive: 4.91%
16 | Cc1cn(C)c(CC(=O)N2CCN(c3cccc(C(F)(F)F)c3)CC2)c1C(=O)O | inactive: 7.78%
17 | Cc1ccc(-n2cc3c(c2-c2ccccc2Br)c(=O)n(C)c(=O)n3C)cc1N | inactive: -13%
18 | Cc1ccc(C)c(NC(=O)Cn2c(=O)n(-c3ccccc3C)c(=O)c3c2c2cc(C)ccc2n3C)c1 | inactive: 1.77%
19 | CC(C)n1cc2c(c1-c1ccccc1Cl)c(=O)n(C)c(=O)n2C | inactive: -7.21%
20 | Cc1ccc(C(C)C)c(OCC(=O)NCC2(N3CCOCC3)CCCCC2)c1 | inactive: -29.8%
21 | Cc1cccc(C(=O)Nc2cccc(OCc3cc(=O)n4cc(C)sc4n3)c2)c1 | inactive: 15.9%
22 | Cn1ccc2cc(S(=O)(=O)N3CCCC(C(=O)NCc4ccc(F)cc4)C3)ccc21 (stereo unspecified) | inactive: -3.33%
23 | O=C(NC1(C(F)(F)F)N=C(c2ccccc2)N(C2CCCCC2)C1=O)c1ccc(F)cc1 (stereo unspecified) | inactive: 1.47%
24 | Cc1cc(C)n(CCc2nc3c4ccccc4nc(SCc4ccc(Cl)cc4)n3n2)n1 | inactive: 4.91%

Row | SMILES | activity change, negative = cytotoxicity
25 | CCOc1ccccc1-c1noc(CCCC(=O)Nc2cccc(C(F)(F)F)c2)n1 | inactive: -16.6%
26 | O=C(CSc1nc(-c2ccc(F)cc2)nc2c1Cc1ccccc1O2)Nc1cccc(C(=O)O)c1 | inactive: 5.54%
27 | N#Cc1cccc(NC(=O)C2CCN(c3cnccn3)CC2)c1 | inactive: -13.5%
28 | CC(=O)Nc1ccc(NC(=O)c2cc3c(=O)n(Cc4cccnc4)ccc3nc2C)cc1 | inactive: 2.14%
29 | COc1cc(NC(=O)C2CCN(S(=O)(=O)c3c(C)noc3/C=C/c3cccs3)CC2)cc(OC)c1 | inactive: -5.9%
30 | CCN1C(=O)c2ccccc2S(=O)c2ccc(C(=O)NCc3ccc(C)cc3)cc21 (stereo unspecified) | inactive: 0.607%
31 | Cc1ccc2c(c1)c(=O)c(C(=O)c1ccccc1)cn2Cc1ccccc1F | inactive: -6.75%
32 | CCOc1cccc(C(=O)Nc2nnc(S(=O)(=O)N(C)c3ccc(C)cc3)s2)c1 | inactive: 0.0428%
33 | COc1ccc(NC(=O)CC2C(=O)N(c3ccccc3)C(=O)N2CCC2=CCCCC2)cc1 (stereo unspecified) | inactive: -18.3%
34 | COc1ccc(/C=C(/C#N)c2nc(-c3cc4ccccc4oc3=O)cs2)cc1 | inactive: 2.94%
35 | CCC1CN(C(=O)Nc2ccccc2C(F)(F)F)c2ccccc2O1 (stereo unspecified) | inactive: 0.0669%
36 | CCOc1ccccc1C1C(C(N)=O)=C(C)Nc2nc(-c3ccccc3Cl)nn21 (stereo unspecified) | inactive: -5.17%
37 | Cc1cccc(N2CC(c3nc4ccc(C)cc4[nH]3)CC2=O)c1 (stereo unspecified) | inactive: 0.423%
38 | COc1ccc(-c2nc(SCC(=O)c3ccc(Br)cc3)n[nH]2)cc1 | inactive: -8.93%
39 | Cc1c(CNC2CCC(C)CC2)c(C(=O)O)c(C)n1Cc1ccccc1F (stereo unspecified) | inactive: 14%
40 | CCc1ccc(Nc2cc(C)nc3nc(Cc4ccc(Cl)cc4)nn23)cc1 | inactive: 1.11%
41 | Cc1cccc(NC(=O)CSc2nc3ccc(NC(=O)c4cccs4)cc3s2)c1 | inactive: 0.433%
42 | CC(C)c1ccc(OCc2cc(=O)n3c4c(sc3n2)CCCC4)cc1 | inactive: 8.75%
43 | COc1ccc(-c2oc3ncn4nc(-c5ccc(Cl)cc5)nc4c3c2-c2ccc(OC)cc2)cc1 | inactive: 9.22%
44 | CCN(CC)CCN(C(=O)c1ccco1)c1nc2c(C)cccc2s1 | inactive: -8.09%
45 | COc1ccccc1NC(=O)CN(c1ccc(C(C)C)cc1)S(=O)(=O)c1c(C)noc1C | inactive: -16.4%
46 | CCOC(=O)c1ccc(CSc2nnc3cc(C)c4ccccc4n23)cc1 | inactive: -0.66%
47 | O=C(NC1CCCCC1)c1ccc2c(c1)sc1nc(-c3ccccc3)cn12 | inactive: -2.35%
48 | CCN(CC)c1ccc(NS(=O)(=O)c2ccc3c(c2)CCCN3C(C)=O)c(C)c1 | inactive: -12.8%

Row | SMILES | activity change, negative = cytotoxicity
49 | COC(=O)c1cc2oc(C)cc2n1Cc1c(C)cc(C)cc1C | inactive: -2.9%
50 | COc1cc2c(=O)n(Cc3ccccc3)c(=O)n(CC(=O)Nc3cc(C(F)(F)F)ccc3Cl)c2cc1OC | inactive: 3.42%
51 | CN1C(C(=O)Nc2ccc(OC(F)(F)F)cc2)=CC(c2ccc3c(c2)OCO3)=NS1(=O)=O | inactive: 0.169%
52 | O=C(Cn1cccc1C(=O)c1ccccc1)NCc1ccc(F)cc1 | inactive: 0.978%
53 | Cc1ccc(OC(=O)c2snnc2C)cc1C | inactive: 5.25%
54 | Cc1ccc(NC(=O)C(=O)NCC(c2ccc3c(c2)OCO3)N2CCOCC2)c(C)c1 (stereo unspecified) | inactive: 8.15%
55 | O=C(CSc1ncc2c(n1)-c1ccccc1N(Cc1ccc(F)cc1)S2(=O)=O)c1ccc(Br)cc1 | inactive: 12.3%
56 | CCCN1CCN(CCNC(=O)Nc2cc(OC)cc(OC)c2)CC1 | inactive: -1.51%
57 | COc1ccc(C2c3c(n(C)c4ccccc34)C(=O)N2CC(=O)Nc2ccc(Cl)cc2)cc1 (stereo unspecified) | inactive: 0.517%
58 | CCc1ccc(N2CCn3c2nc2c3c(=O)n(Cc3cccc(C)c3)c(=O)n2C)cc1 | inactive: 20%
59 | CCOC(=O)c1c(C)oc2ncnc(NCCc3ccccc3)c12 | inactive: -17.7%
60 | COc1cc2nc(SCC(=O)Nc3ccc(F)cc3)n3nc(CCn4c(C)nc5ccccc54)nc3c2cc1OC | inactive: 17.3%
61 | CCOc1ccc2nc(N3CCCC(C(=O)Nc4ccc(Br)c(C)c4)C3)sc2c1 (stereo unspecified) | inactive: -0.886%
62 | CCC(=O)N1CCc2cc(Br)cc(S(=O)(=O)N3CCN(c4ccccc4)CC3)c21 | inactive: 7.2%
63 | COc1ccc(CNC(=O)C2CCCN(S(=O)(=O)c3ccc4c(c3)CCCN4C(C)=O)C2)cc1 (stereo unspecified) | inactive: -21.9%
64 | CCc1nnc2c(NCc3ccc(F)cc3)nc3ccccc3n12 | inactive: 1.04%
65 | COc1ccccc1N1CCN(C(=O)c2oc3ccccc3c2NC(=O)C(C)Oc2ccccc2)CC1 (stereo unspecified) | inactive: 2.43%
66 | Cc1ccc(C(C)C)c(OCCn2cc(C(=O)c3ccco3)c3ccccc32)c1 | inactive: -7.81%
67 | O=C(Nc1cc(Cl)cc(Cl)c1)c1ccc(F)c(S(=O)(=O)N2CCCCCC2)c1 | inactive: 21%
68 | COc1ccc2c(c1)CC(C(=O)N1CCC(C(N)=O)CC1)CO2 (stereo unspecified) | inactive: -0.314%
69 | COc1ccc(CCNC(=O)c2cc(Sc3cccc(Cl)c3)nc3ccccc23)cc1OC | inactive: -18%
70 | COc1ccc2c(c1)NC(c1ccc(OCC(C)C)cc1)=NC(c1ccncc1)=N2 | inactive: 3.44%
71 | Cc1ccc(NC(=O)Cn2c(=O)n(Cc3ccco3)c(=O)c3ccccc32)cc1 | inactive: 23.3%
72 | CCOc1ccc(CNC(=O)c2cc3c(=O)n(C)c4ccccc4c3s2)cc1 | inactive: 2.37%

Row | SMILES | activity change, negative = cytotoxicity
73 | O=C(c1ccc2c(c1)OCCO2)N(Cc1cccnc1)c1nc2ccc(F)cc2s1 | inactive: 4.52%
74 | O=C(Cn1cc(SCc2cccc(Cl)c2)c2ccccc21)N1CCOCC1 | inactive: 2.93%
75 | O=c1[nH]c(SCc2ccc(F)cc2)nc2c1CCCC2 | inactive: -5.44%
76 | COc1cc(C(=O)NC2CC(=O)N(c3cccc(F)c3)C2)cc(OC)c1OC (stereo unspecified) | inactive: -8.24%
77 | Cc1ccc(NC(=O)C2CCCN2S(=O)(=O)c2cccc3cccnc23)cc1 (stereo unspecified) | inactive: 13.6%
78 | COc1ccc(-c2ccnc3c(-c4ccc(F)cc4)c(C)nn23)cc1OC | inactive: 14.6%
79 | CC1CN(C(=O)N2CCC(C(=O)NC3CCCCCC3)CC2)c2cc(Cl)ccc2O1 (stereo unspecified) | inactive: -13.4%
80 | Cc1cc(C)n2nc(CNS(=O)(=O)c3ccc(Cl)cc3)nc2n1 | inactive: 3.77%
81 | COc1ccc(-c2noc(-c3ccc(NCc4ccccc4OC)c([N+](=O)[O-])c3)n2)cc1 | inactive: 3.62%
82 | Cc1ccc(C2=Nc3ccccc3N(CC(=O)Nc3cccc(F)c3)C(=O)C2)cc1C | inactive: -28.6%
83 | CC(=O)Nc1cccc(C(=O)NCc2ccc3c(c2)CCN3C(C)=O)c1 | inactive: 12.1%
84 | CCn1cc(C(=O)NCCc2ccccc2)c(=O)c2cc(S(=O)(=O)N(C)C3CCCCC3)ccc21 | inactive: 0.858%
85 | CCOc1ccccc1N(C)C(=O)C1CCCN(c2ncnc3onc(-c4ccc(F)cc4)c23)C1 (stereo unspecified) | inactive: 2.35%
86 | Cc1c(CCNC(=O)Cc2ccccc2)sc2nc(-c3ccc(F)cc3)nn12 | inactive: -23.2%
87 | O=C(CN1CCN(Cc2ccc(Cl)cc2)C1=O)NCc1ccc(F)cc1 | inactive: 1.11%
88 | CN(C)CCCNc1oc(/C=C/c2ccc(F)cc2)nc1C#N | inactive: -1.4%
89 | Cc1ccc(NC(=O)CCCn2c(=O)c3cccn3c3cccnc32)c(Cl)c1 | inactive: 29.4%
90 | O=c1oc2c3c(ccc2c2ccccc12)OCN(Cc1cccc(Cl)c1)C3 | inactive: 13.3%
91 | CCOc1ccc(-c2cnc(NCc3ccc(OC)cc3OC)n2C)cc1 | inactive: -2.01%
92 | COCCNC(=O)C1CCCN(S(=O)(=O)c2ccc3c(ccn3C)c2)C1 (stereo unspecified) | inactive: 1.13%
93 | Cn1nc(C(=O)N2CCN(c3ccccc3F)CC2)c2c1-c1ccccc1SC2 | inactive: 8.21%
94 | O=C1c2oc3ccc(F)cc3c(=O)c2C(c2cccc([N+](=O)[O-])c2)N1CCCN1CCOCC1 (stereo unspecified) | inactive: 0.374%
95 | Cc1ccc(NC(=O)c2cccn2-c2nnc(N3CCCCC3)s2)cc1Cl | inactive: -3.44%
96 | CCN(CC)CCNC(=O)Cn1ncc2c([nH]c3ccccc32)c1=O | inactive: 10.3%
